Reference: PubChem BioAssay AID488969 (Vanderbilt High Throughput Screening Facility, 2010)
The full ranking holds about 110,000 compounds; the median of “z-score” is about -0.1, and the highest 2% start at about 2. This is one part of the list. The source made the active and inactive calls.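 Rule for the calls: active = z-score in the third read window above 3 or below -3; inactive = the rest.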

Molecular target: Metabotropic glutamate receptor 8 (Rattus norvegicus) (UniProt P70579)
Assay: mGluR8 Gi/Go-coupled signaling modulation – cell-based, rat, thallium flux, HTS, primary screen (AID 488969)
Conditions: HEK293 rat mGluR8, GIRK (G protein-gated inwardly rectifying potassium channel) thallium flux, FluoZin2; at 10 µM; stronger effect = higher value; submaximal glutamate (EC20) added with thallium

Sequence of UniProt P70579 (P70579 whole entry, looked up): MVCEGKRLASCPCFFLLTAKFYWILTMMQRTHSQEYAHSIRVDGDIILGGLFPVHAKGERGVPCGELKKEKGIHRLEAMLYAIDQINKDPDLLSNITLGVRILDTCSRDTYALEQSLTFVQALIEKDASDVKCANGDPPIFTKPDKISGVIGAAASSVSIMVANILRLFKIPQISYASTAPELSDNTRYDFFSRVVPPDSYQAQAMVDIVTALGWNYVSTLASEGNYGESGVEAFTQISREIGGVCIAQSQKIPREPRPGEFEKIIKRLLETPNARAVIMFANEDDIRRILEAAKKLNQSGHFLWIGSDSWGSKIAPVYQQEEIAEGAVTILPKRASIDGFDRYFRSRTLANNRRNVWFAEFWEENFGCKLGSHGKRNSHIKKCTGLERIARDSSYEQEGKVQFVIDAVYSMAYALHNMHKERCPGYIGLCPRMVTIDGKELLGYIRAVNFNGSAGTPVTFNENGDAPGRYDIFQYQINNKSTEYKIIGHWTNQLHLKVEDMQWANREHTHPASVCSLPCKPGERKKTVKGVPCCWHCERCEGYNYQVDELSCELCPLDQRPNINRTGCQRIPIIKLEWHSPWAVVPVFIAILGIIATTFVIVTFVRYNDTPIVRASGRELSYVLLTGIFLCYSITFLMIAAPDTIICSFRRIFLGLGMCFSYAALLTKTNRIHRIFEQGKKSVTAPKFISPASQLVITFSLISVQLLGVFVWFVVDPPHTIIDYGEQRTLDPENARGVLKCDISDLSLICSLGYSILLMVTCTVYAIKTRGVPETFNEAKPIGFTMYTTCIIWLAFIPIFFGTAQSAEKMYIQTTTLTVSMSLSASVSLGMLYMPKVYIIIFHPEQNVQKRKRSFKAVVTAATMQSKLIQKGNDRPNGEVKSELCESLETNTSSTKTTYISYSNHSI

| Compound | z-score |
| --- | --- |
| CCOc1ccc(OCC)c(NC(=O)C2CCN(S(=O)(=O)c3cnc[nH]3)CC2)c1 | -1.07 |
| CN1CCn2c1nc(N1CCCCC1)nc2=O | 0.365 |
| Cc1nn(-c2ccccc2)c(-c2ccccc2)c1C(=O)O | -0.044 |
| CCC(C)(C)n1nnnc1C(c1cc2cc(C)ccc2[nH]c1=O)N1CCCc2ccccc21 (stereo unspecified) | -0.094 |
| Cc1ccc(Oc2ccccc2/C=N/O)cc1 | -0.167 |
| O=C(NC1CCCCC1)N(CCO)Cc1cc2cc3c(cc2[nH]c1=O)OCCO3 | -0.338 |
| Cc1ccc(C(c2nnnn2CS(=O)(=O)c2ccc(C)cc2)N2CCC(C)CC2)cc1 (stereo unspecified) | -0.869 |
| CCOC(=O)Cc1csc(SC(C)C(=O)Nc2ccc(NC(C)=O)cc2)n1 (stereo unspecified) | -0.132 |
| CCC(CC)C(=O)N(c1ccc(F)cc1)C1C=CS(=O)(=O)C1 (stereo unspecified) | 0.277 |
| Cc1nc(NC(=O)c2ccc([N+](=O)[O-])cc2Cl)sc1C(=O)N(C)C | -0.0927 |
| Clc1ccc(-c2nnc(C34CC5CC(CC(C5)C3)C4)o2)cn1 | -0.0891 |
| CCOC(=O)c1ccccc1NC(=O)c1ccc2c(=O)n3c(nc2c1)CCCCC3 | -1.75 |
| COc1nc(C)ccc1-c1noc(-c2ccccn2)n1 | 0.308 |
| COc1ccc(N2C(=O)CC2(/C=C/c2ccccc2OC)C(=O)NC2CCCC2)cc1 (stereo unspecified) | -0.0628 |
| CCCNC(=O)C(=O)Nc1ccc(N(C)C)cc1 | -0.0526 |
| Cc1ccc(-n2nnnc2SCC(=O)N2CCN(C(=O)c3ccco3)CC2)c(C)c1 | -0.886 |
| COc1cccc(NC2=NCC(=O)N2Cc2cccs2)c1 | 0.854 |
| O=C(CSc1nccc2ccccc12)N1CCN(c2ccccn2)CC1 | -1.6 |
| Cc1cccc(N2CC(C(=O)Nc3nnc(SCC(=O)Nc4cc(C)on4)s3)CC2=O)c1 (stereo unspecified) | -0.258 |
| C(=N\c1nccs1)/c1c[nH]c2ccccc12 | -0.861 |
| CCCCC1CCC(C(=O)NC2CCS(=O)(=O)C2)CC1 (stereo unspecified) | 0.0229 |
| COc1ccc2nc(NCCO)[nH]c2c1 | -0.322 |
| CCN(CC)CCN(Cc1cc2cc(C)ccc2[nH]c1=O)C(=S)NCc1ccco1 | 0.381 |

| Compound | z-score |
| --- | --- |
| COc1ccc(CCC(=O)NCc2ccco2)cc1 | -0.337 |
| CC1Cc2ccccc2N1C(=O)COc1cccc(-n2cnnn2)c1 (stereo unspecified) | -0.404 |
| O=S1(=O)CCC(SCc2nc3sccn3c2Br)C1 (stereo unspecified) | -0.55 |
| COC(=O)c1cccc(NC(=O)C(C)N2C(=O)c3ccccc3C2=O)c1 (stereo unspecified) | 0.0709 |
| CCOc1[nH]c(/N=C/c2ccco2)c(C#N)c1C#N | -0.212 |
| CC1CCCN(CCOCCOc2ccc(Br)cc2Cl)C1 (stereo unspecified) | 0.0933 |
| C=C1C2(C(=O)NCc3ccco3)CCC(C2)C1(C)C (stereo unspecified) | -0.0997 |
| COc1ccc(C(=O)c2ccccc2)c2c(O)ccc(C(=O)c3ccccc3)c12 | -0.153 |
| O=c1[nH]c2ccccc2nc1N1CCOCC1 | 0.306 |
| Cc1ccc(S(=O)(=O)Cc2ccc(C(=O)N3CCc4ccccc4C3)o2)cc1 | -0.31 |
| CCCCOc1ccc(C(=O)Nc2ccc(N3CCN(C(=O)C(C)C)CC3)cc2)cc1 | 0.167 |
| O=C(Cc1cc(=O)[nH][nH]1)N/N=C/c1cccc(Cl)c1Cl | -0.524 |
| CC(=O)Nc1ccc(NC(=O)c2ccccc2CC[N+](=O)[O-])cc1 | 0.119 |
| Cc1onc(-c2ccccc2)c1C(=O)N1CCCN(C(=O)c2c(-c3ccccc3)noc2C)CC1 | -0.0397 |
| Cc1cc(C)nc(NC(=O)c2c(-c3c(Cl)cccc3Cl)noc2C)n1 | -1.14 |
| Fc1cccc(C2NN=C(c3ccccc3)S2)c1 (stereo unspecified) | active: 6.37 |
| CC(OC(=O)c1cccc(NS(C)(=O)=O)c1)C(=O)Nc1ccc(N2CCOCC2)cc1 (stereo unspecified) | -0.447 |
| CCOc1ccccc1NC(=O)Cn1c(=O)n(-c2ccccc2)c(=O)c2oc3ccccc3c21 | -0.369 |
| CCn1c2ccccc2c2cc(/C=N/n3cnnc3)ccc21 | -1.04 |
| CCCn1c(=O)[nH]c(=O)c2c1nc(-c1ccccc1OC(F)F)n2CCOC | -0.729 |
| CCOC(=O)c1ccc([N+](=O)[O-])cc1NC(C)=O | 0.368 |
| COc1ccc(-n2c(N)c(-c3nc4ccccc4n3C)sc2=S)cc1 | 0.161 |
| CC1CC(C)CN(CCC(=O)Nc2cccc(Cl)c2)C1 (stereo unspecified) | 1.2 |

| Compound | z-score |
| --- | --- |
| Cc1nc(C)c(C(=O)OCC(=O)N2CCN(c3ccccc3)CC2)s1 | -0.392 |
| O=C(Nc1ccc(OC(=O)c2ccccc2)c(-c2nc3ccccc3s2)c1)c1ccccc1 | -0.0491 |
| O=C(NCCOC(=O)c1ccccc1C(=O)OCCNC(=O)c1cccnc1)c1cccnc1 | -0.243 |
| CCCN1C2CCCC1CC(NC(=O)c1ccc(F)cc1)C2 (stereo unspecified) | -0.212 |
| O=S(=O)(NC1CCCCC1)c1cccc(-c2nnc(-c3ccccc3)o2)c1 | 0.624 |
| CCN(CC)S(=O)(=O)c1cccc(-c2nnc(SCC(N)=O)n2CCc2ccccc2)c1 | -0.616 |
| O=S(=O)(Cc1ccccc1)N1CCN(c2ccccc2)CC1 | -0.475 |
| CN(C)C(=O)CNC(=O)C1CCCCC1 | -0.0723 |
| COC(=O)CSc1nnc(C)n1-c1cccc(OC)c1 | -0.108 |
| CCC(=O)NCCc1nc2ccccc2n1Cc1ccc(C)cc1 | -0.19 |
| Cc1c(C(=O)Nc2ccc(F)cc2)oc2ccc(S(=O)(=O)N3CC(C)CC(C)C3)cc12 (stereo unspecified) | -0.0391 |
| COc1cc(-c2nnc(SCC3(c4ccccc4)OCCO3)o2)cc(OC)c1OC | -0.69 |
| CCCCNC(=O)CN1C(=O)NC2(CCCc3ccccc32)C1=O (stereo unspecified) | 0.378 |
| Cc1ccc(N(C(=O)c2ccccc2Cl)C2=NC(C)CS2)c(C)c1 (stereo unspecified) | -0.0432 |
| COc1cc(/C=C2/OC(=O)c3cc([N+](=O)[O-])ccc32)cc(OC)c1OC | -0.0655 |
| CCN(CC)C(=O)C12CC3CC(CC(Cl)(C3)C1)C2 | -0.00405 |
| Cc1ccnc(N2CCC(C(=O)NNC(=O)c3ccccc3C)CC2)n1 | -0.203 |
| O=C(NC1CCCCC1)C12CC3CC(CC(Cl)(C3)C1)C2 | -0.21 |
| O=C(Nc1nc2ccc(S(=O)(=O)N3CCCC3)cc2s1)C1CCCO1 (stereo unspecified) | 0.149 |
| CCCCCCCC1CC(CSC(=N)N)OC1=O (stereo unspecified) | active: 5.96 |
| Cc1cc(C)nc(NC(=O)/C=C/c2cccs2)c1 | -0.267 |
| COc1cccc(C(=O)Nc2ccc(-c3nc4ccccc4o3)c(O)c2)c1 | -0.353 |
| COCCn1nnnc1C(c1ccccc1OC)N1CCc2ccccc2C1 (stereo unspecified) | -0.308 |

| Compound | z-score |
| --- | --- |
| Cc1cc(NC(=O)COC(=O)[C@H](C)NC(=O)c2ccccc2)no1 | -0.202 |
| COc1cccc(-c2nc(NC(C)C)c3ccccc3n2)c1O | -0.382 |
| COc1ccc(C(=O)NC(=O)N2CCCCC2)cc1 | 0.975 |
| C/C(=C\C(=O)c1ccc(Br)cc1)NCc1ccccc1 | -0.0992 |
| COc1ccc(C(C(=O)NC2CCCCC2)N(C(=O)CCCC(=O)Nc2ccccn2)c2ccc3c(c2)OCCO3)cc1 (stereo unspecified) | 0.117 |
| O=S(=O)(c1cccc(-c2csc(-c3cccnc3)n2)c1)N1CCCCC1 | 0.409 |
| Cc1ccc(S(=O)(=O)N2CCOCC2)cc1NC(=O)COC(=O)Cc1ccsc1 | 0.269 |
| c1ccc(C2CNCc3c2ccc2ccccc32)cc1 (stereo unspecified) | 0.462 |
| O=C(NCc1ccco1)NC12CC3CC(CC(C3)C1)C2 | -0.073 |
| CC(C)NC(=O)c1cnc(N2CCN(c3ccccn3)CC2)c2ccccc12 | -0.555 |
| COc1cccc(C2C(C#N)=C(N)Oc3cc(C)n(Cc4ccco4)c(=O)c32)c1 (stereo unspecified) | 0.0055 |
| CCN1CCN(Cc2nc3c(c(=O)n(C)c(=O)n3C)n2CC(=O)c2ccccc2)CC1 | -0.316 |
| N#CC1=C(N)Oc2cc3ccccc3cc2C1c1cccs1 (stereo unspecified) | -0.0711 |
| O=C(N/N=C/c1cc(Br)ccc1O)C(c1ccncc1)N1CCOCC1 (stereo unspecified) | -0.0773 |
| Cc1ccc(C)c(C(=O)CSc2n[nH]c(C(C)C)n2)c1 | -0.054 |
| COCCN(C(=O)CCl)C(C(=O)NC1CCCCC1)c1ccccc1C (stereo unspecified) | 0.299 |
| CC(C)c1ccc(NC(=O)COC(=O)CSc2nnc(N)s2)cc1 | 0.122 |
| COCCCn1cnnc1SCC(=O)Nc1ccc(S(=O)(=O)N2CCCC2)cc1 | -0.164 |
| COC(=O)C1C2C=CC3(CN(CCc4ccccc4)C(=O)C13)O2 (stereo unspecified) | 0.336 |
| CCn1cc(S(=O)(=O)CC(=O)NC2CCCCC2)c2ccccc21 | 1.08 |
| CCn1c(=O)n(CCc2ccccc2)c(=O)c2c3c(sc21)CCCC3 | -0.00374 |
| C=CCn1c(C)cc(C(=O)CSc2ccc(NC(C)=O)cc2)c1C | 0.19 |
| CN(CCOC(=O)c1cccc(Br)c1)C(C)(C)C | 0.0485 |

| Compound | z-score |
| --- | --- |
| N#Cc1nc(-c2cccs2)oc1NCC1CCCO1 (stereo unspecified) | -0.0797 |
| Cc1ccc(Nc2nc3c(c(=O)[nH]c(=O)n3C)n2Cc2ccc(F)cc2)cc1 | -0.354 |
| Fc1cccc2sc(N3CCCCC3)nc12 | -0.322 |
| CCc1ccc(C2C(C#N)=C(N)C(C#N)(C#N)C3=CCC(C(C)(C)C)CC32)cc1 (stereo unspecified) | -0.0406 |
| CC(=O)c1ccc(Nc2nc(=O)c3cccnc3s2)cc1 | 0.37 |
| CC(/C=N/NC(=O)c1ccc(Br)cc1)=C\c1ccccc1 | -1.26 |
| O=C(COC(=O)c1ccc(NS(=O)(=O)c2ccc3c(c2)OCCO3)cc1)NC1CC1 | 0.00704 |
| O=C(CCN1C(=O)c2ccccc2C1=O)Oc1ccc2ccccc2c1 | 0.0257 |
| CC(C)(C)NC(=O)CN(C(=O)CCN1CCCc2ccccc21)C(C)(C)C | -0.0231 |
| Cc1cc(SCC(=O)N2CCC(c3noc4ccc(F)cc34)CC2)nc2ccccc12 | 0.605 |
| Clc1cccc(Cl)c1CSc1nnc(/C=C/c2ccccc2)o1 | -0.128 |
| CCCCCNS(=O)(=O)c1cc(C)ccc1OC | -0.0789 |
| O=C(CN(C(=O)CSc1nnc(COc2ccccc2)o1)c1ccc(F)cc1)NC1CCCCC1 | 0.212 |
| COc1ccc(NC(=S)N2CCN(C(=O)c3ccco3)CC2)c(OC)c1 | -0.197 |
| Cc1nn(Cc2ccc(Cl)cc2)c(=O)n1N(C)c1ncc(C(F)(F)F)cc1Cl | -0.07 |
| COc1ccc2c(c1)nc(SCC(=O)c1ccc(Br)s1)n2C | -0.112 |
| C=CCSc1nc2c(c(=O)[nH]1)C(C(C)C)C(C#N)=C(N)O2 (stereo unspecified) | -2.35 |
| O=C(NC1(C(F)(F)F)NC(=O)N(Cc2cccnc2)C1=O)c1ccccc1 (stereo unspecified) | 1.13 |
| C=Cn1ccnc1P(=S)(c1ccc2c(c1)c1ccccc1n2CC)c1nccn1C=C | 0.0668 |
